Measurements taken from the supplement of paper PMC12217912.
The list shows a part of the results. Sequences were assembled here from the parent chain. Values near 0.05 are background.

B1: TEV protease; numbered along this chain (parent)
chain: MGESLFKGPRDYNPISSSICHLTNESDGHTTSLYGIGFGPFIITNKHLFRRNNGTLVVQSLHGVFKVKDTTTLQQHLVDGRDMIIIRMPKDFPPFPQKLKFREPQREERICLVTTNFQTKSMSSMVSDTSCTFPSGDGIFWKHWIQTKDGQCGSPLVSTRDGFIVGIHSASNFTNTNNYFTSVPKNFMELLTNQEAQQWVSGWRLNADSVLWGGHKVFMVKPEEPFQPVKEATQL

Variants of: B1
Experiment: raw area under fraction-flipped curve 0-4 h after induction (AUC4h, not background-subtracted), DNA-recorder readout of cleavage of the substrate (dimensionless); higher = more cleavage of the substrate by the protease variant
Settings: temperature: 34 °C; time window: 0-4 h after rhamnose induction
Description: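 In vivo DNA recorder in E. coli TOP10(DE3) ΔrhaA at 34 °C. Each TEVp single-site mutant (parent TEVp 0) is paired with a single-site variant of the 7-mer TEVs (canonical ENLYFQ|S). The substrate sits between flexible linkers in a Bxb1-sfGFP-TEVs-SsrA fusion, so cleavage stabilises Bxb1 and speeds flipping of a recombination array, read by NGS. The value is the raw area under the fraction-flipped curve over 0-4 h after rhamnose induction (AUC4h), with ≥20 reads per time point. It is not background-subtracted; inactive controls average about 0.047.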
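Also: Bxb1 expression induced with 0.2% (w/v) L-rhamnose at OD600 near 0.5, cultures sampled hourly, flipped fraction per protease–substrate barcode pair counted by paired-end Illumina sequencing.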

| Variant | area with substrate ENLDFQS | area with substrate ENLEFQS | area with substrate ENLHFQS | area with substrate ENLKFQS | area with substrate ENLNFQS | area with substrate ENLPFQS | area with substrate ENLRFQS | area with substrate ENLSFQS | area with substrate ENLFFQS | area with substrate ENLLFQS | area with substrate ENLMFQS | area with substrate ENLQFQS | area with substrate ENLWFQS | area with substrate ENLIFQS | area with substrate ENLGFQS | area with substrate ENLTFQS | area with substrate ENLVFQS |
| --- | --- | --- | --- | --- | --- | --- | --- | --- | --- | --- | --- | --- | --- | --- | --- | --- | --- |
| V183E | 0.0472 | 0.0323 | 0.0475 | 0.051 | 0.0474 | 0.0541 | 0.0525 | 0.0615 | – | – | – | – | – | – | – | – | – |
| V183Y | 0.0528 | – | 0.0573 | – | 0.0543 | 0.0511 | 0.0526 | 0.0429 | 0.116 | 0.0548 | 0.0714 | 0.0635 | 0.0671 | – | – | – | – |
| Y34Q | – | – | – | – | – | – | – | – | 0.0674 | – | – | 0.0326 | – | 0.0766 | – | – | – |
| N175M | 0.0841 | – | 0.0632 | 0.0579 | 0.0645 | 0.0632 | 0.0787 | 0.0584 | – | – | – | – | – | – | 0.0601 | – | – |
| N175P | – | 0.0616 | 0.0667 | 0.0697 | 0.0681 | 0.0365 | – | 0.0037 | – | – | 0.0536 | – | 0.0548 | – | 0.0526 | – | – |
| K148P | – | 0.0763 | 0.0526 | 0.0749 | 0.065 | 0.0616 | 0.0708 | 0.0546 | 0.0655 | – | 0.0576 | – | 0.0673 | – | – | – | – |
| K148I | 0.0789 | 0.0628 | 0.0852 | 0.0553 | 0.0665 | 0.0508 | 0.0786 | – | 0.0933 | 0.0771 | – | 0.0717 | 0.0752 | 0.0706 | – | – | – |
| L190G | 0.0667 | 0.0649 | – | 0.0638 | 0.0677 | – | – | 0.0547 | 0.0678 | – | 0.0436 | 0.0685 | 0.0548 | 0.0668 | – | 0.0601 | – |
| Q194E | 0.0594 | – | 0.0927 | 0.0774 | 0.0497 | 0.0539 | 0.0955 | 0.0722 | – | 0.0767 | – | 0.0389 | 0.0563 | 0.0888 | 0.0693 | – | – |
| P155Y | 0.047 | 0.0688 | – | 0.0611 | 0.0562 | – | – | 0.0438 | 0.0441 | 0.0673 | – | 0.0649 | – | 0.0697 | – | – | 0.0412 |
| L211C | – | – | – | 0.0696 | 0.066 | 0.0659 | – | 0.0651 | 0.0739 | – | – | – | 0.0709 | 0.0631 | 0.0533 | – | – |
| Q234H | 0.0437 | 0.0523 | – | 0.0778 | 0.0558 | 0.0371 | 0.0712 | – | 0.0803 | 0.0603 | – | 0.0809 | 0.0701 | 0.0701 | 0.0685 | – | – |
| F95V | – | 0.0618 | 0.0991 | 0.0641 | 0.0555 | 0.0567 | 0.0571 | 0.0644 | 0.0651 | – | 0.0712 | 0.0599 | – | 0.0865 | 0.0253 | – | – |
| G214A | 0.0591 | – | 0.0561 | 0.07 | – | 0.0617 | 0.0426 | 0.068 | 0.0704 | 0.0618 | – | – | 0.0597 | – | – | – | 0.0757 |
| I164Y | 0.0629 | 0.0497 | 0.0724 | 0.058 | 0.053 | 0.0499 | – | – | 0.0574 | 0.0732 | – | – | 0.0503 | 0.0437 | – | – | – |
| I164T | 0.0605 | 0.0563 | 0.0562 | 0.081 | 0.061 | 0.0581 | 0.0592 | 0.0479 | 0.072 | 0.0395 | – | – | 0.0546 | 0.0505 | – | – | 0.0736 |
| S154G | 0.069 | – | 0.06 | 0.0818 | 0.068 | 0.041 | 0.0935 | 0.0646 | 0.0716 | – | – | – | 0.0995 | – | – | 0.0841 | 0.0909 |

| Variant | area with substrate ENLDFQS | area with substrate ENLEFQS | area with substrate ENLHFQS | area with substrate ENLKFQS | area with substrate ENLNFQS | area with substrate ENLPFQS | area with substrate ENLRFQS | area with substrate ENLSFQS | area with substrate ENLFFQS | area with substrate ENLLFQS | area with substrate ENLMFQS | area with substrate ENLQFQS | area with substrate ENLWFQS | area with substrate ENLIFQS | area with substrate ENLGFQS | area with substrate ENLTFQS | area with substrate ENLVFQS |
| --- | --- | --- | --- | --- | --- | --- | --- | --- | --- | --- | --- | --- | --- | --- | --- | --- | --- |
| I85M | – | 0.0615 | 0.0674 | 0.08 | 0.0705 | – | 0.0728 | 0.0751 | 0.0753 | – | 0.128 | 0.0625 | 0.0697 | 0.109 | – | – | – |
| R160H | 0.074 | – | – | 0.0793 | – | – | 0.0724 | 0.041 | – | 0.0731 | – | 0.0732 | – | 0.105 | 0.0329 | – | – |
| K221D | 0.0592 | – | 0.0572 | 0.0666 | 0.0586 | 0.0576 | – | 0.0648 | 0.078 | – | 0.0607 | 0.0438 | – | 0.0839 | – | – | 0.103 |
| D161H | – | 0.0395 | 0.0683 | 0.0424 | 0.0502 | 0.0422 | 0.0577 | 0.0587 | – | – | – | – | – | – | – | – | 0.0478 |
| F163L | 0.0662 | – | 0.0766 | 0.0894 | 0.0403 | – | 0.0646 | 0.0594 | 0.0859 | – | – | 0.0487 | 0.0784 | 0.08 | – | – | – |
| F173L | 0.0593 | 0.0498 | – | 0.0794 | 0.0756 | 0.0676 | – | 0.0536 | 0.0824 | 0.0767 | – | 0.0607 | 0.0718 | 0.0737 | – | – | – |
| S182A | 0.0498 | – | 0.0667 | – | 0.064 | – | – | 0.0477 | 0.096 | 0.0844 | – | – | 0.0731 | – | – | 0.0742 | – |
| C20G | – | 0.0466 | – | 0.0687 | – | – | 0.0484 | – | – | 0.066 | – | – | – | – | 0.0611 | – | – |
| Q151I | 0.0595 | 0.0543 | 0.0684 | 0.0708 | 0.0502 | 0.0318 | 0.0749 | 0.0814 | 0.0645 | 0.0716 | – | 0.0827 | 0.0566 | 0.0772 | 0.0609 | – | – |
| M188Y | 0.0681 | 0.0816 | 0.0378 | 0.0834 | 0.0637 | 0.071 | 0.0739 | 0.0651 | 0.0822 | – | – | – | 0.0525 | – | 0.076 | – | 0.0815 |
| Q118S | – | – | 0.0698 | 0.0662 | 0.0666 | 0.0622 | 0.0773 | 0.066 | 0.0741 | – | – | – | – | – | – | – | 0.0876 |
| G37N | – | – | – | – | 0.0633 | – | – | 0.0622 | 0.044 | 0.054 | – | – | – | 0.0732 | – | 0.0726 | 0.0671 |
| A207E | 0.0576 | – | – | 0.078 | 0.0705 | – | – | – | 0.102 | – | – | 0.0756 | 0.0667 | 0.0904 | – | – | – |
| A207Y | – | – | – | – | 0.0532 | 0.0703 | – | – | 0.0694 | – | – | – | 0.0677 | 0.0617 | – | 0.101 | – |
| G8R | – | 0.052 | – | 0.0855 | – | – | – | – | 0.085 | – | – | – | – | – | – | 0.0662 | – |
| D79I | – | – | – | – | – | 0.0475 | – | 0.0565 | 0.0838 | – | – | – | – | – | 0.0593 | – | – |
